The list shows a part of the results. At the low end of the ranking, values are background and their order means little.

This test concerns the target SIX1-Q177R homeodomain (UniProt Q15475). The test is described as follows: universal protein binding microarray. The note with it: Universal all-10-mer PBM (8x60K, AMADID 030236), 300 nM GST-tagged protein, Alexa Fluor 488 anti-GST; buffer, salt, pH and temperature not stated; high values mean tight binding; most listed sequences are background and not binding sites; double strand, one strand shown.
For the sequence CATCACTC, the binding signal was -0.0219 E-score.

Take AATGAAGC: the binding signal was -0.269 E-score.

AAATTCTA: the binding signal was -0.189 E-score.

In the case of CAAGTCCC, the binding signal was -0.198 E-score.

TACGAAGA: the binding signal was -0.109 E-score.

Turning to CTGACTAA, the binding signal was -0.247 E-score.

Turning to CACCTTAC, the binding signal came to 0.248 E-score.

As to AATATTTA, the binding signal is -0.0862 E-score.

As for CACGGTGG, the binding signal came to 0.26 E-score.

Regarding AAAGACGT, the binding signal is -0.321 E-score.

Consider GTCGCCTA, for which the binding signal was determined as 0.0326 E-score.

For TAACCATA, the binding signal is -0.207 E-score.

Regarding CCTCGCCG, the binding signal came to 0.132 E-score.

As for ATCGTGTG, the binding signal turned out to be 0.229 E-score.

Regarding CAAGGGCG, the binding signal is -0.0931 E-score.

As to AAGATAGA, the binding signal is -0.114 E-score.

As for AAGTCTTG, the binding signal was -0.323 E-score.

For CGTATGGC, the binding signal was -0.222 E-score.

As to CTCCGTGC, the binding signal was 0.083 E-score.

On to AGAAAGAC, for which the binding signal was -0.154 E-score.

As to AGCATGGC, the binding signal is -0.385 E-score.

For the sequence ACCTGCGT, the binding signal was 0.0793 E-score.

As for CTAAAGCA, the binding signal is -0.11 E-score.

Regarding CCCCCAGC, the binding signal worked out at 0.0476 E-score.

Take CAGCGTCA: the binding signal amounted to 0.0509 E-score.

Regarding TAACAGTA, the binding signal is -0.243 E-score.

For GGGATCAA, the binding signal is 0.189 E-score.

As for ATCCTGAC, the binding signal came out at 0.0853 E-score.

Consider ATGTAGCA, for which the binding signal is -0.248 E-score.

CGCAACCG: the binding signal is -0.041 E-score.

AAACCGGC: the binding signal came to 0.0182 E-score.

TAGGAGCA: the binding signal was -0.0738 E-score.

For the sequence CACGCCGA, the binding signal turned out to be 0.194 E-score.

As to TAAGGAGA, the binding signal is -0.142 E-score.

Turning to ACGTCCGA, the binding signal was -0.0129 E-score.

For TACTCCTA, the binding signal was 0.0872 E-score.

Turning to ATCTATGA, the binding signal is -0.0215 E-score.

As to ATAATAGG, the binding signal is -0.12 E-score.

For CACTAATA, the binding signal turned out to be 0.162 E-score.

Turning to ATGCAAAA, the binding signal was -0.257 E-score.

Consider GCTCCCCA, for which the binding signal is -0.0456 E-score.

As to CTGCAGCA, the binding signal was 0.057 E-score.

Regarding AACTACAG, the binding signal is -0.191 E-score.

For the sequence GAAGATAA, the binding signal worked out at 0.0363 E-score.

Consider GCAGGAGA, for which the binding signal is -0.0678 E-score.

For the sequence GACCGACA, the binding signal is 0.00513 E-score.

On to AATCCTTC, for which the binding signal is -0.125 E-score.

For the sequence AAGGCTAT, the binding signal is -0.284 E-score.

Take ACGCGGCC: the binding signal is -0.0557 E-score.

AAGATTAT: the binding signal is -0.239 E-score.

Regarding CGATTTCC, the binding signal is -0.0584 E-score.

With AAACGCAG, the binding signal is -0.111 E-score.

As for GTCACTAA, the binding signal was 0.0426 E-score.

As to GCTTTCTA, the binding signal is -0.0518 E-score.

Consider AAAGATGC, for which the binding signal is -0.151 E-score.

With TAAATATA, the binding signal was -0.0572 E-score.

For AACTGCGC, the binding signal was -0.195 E-score.

Turning to GGAAAGCC, the binding signal is -0.214 E-score.

TTCGGCAA: the binding signal is 0.0441 E-score.

As for GACTTGGA, the binding signal was -0.133 E-score.

Take CGTGGGAA: the binding signal was -0.197 E-score.

As to AATCAACC, the binding signal is -0.105 E-score.

As for CGCTCACA, the binding signal was found to be 0.166 E-score.

As for AAGAAACA, the binding signal is -0.00752 E-score.

On to AAATCCCT, for which the binding signal was -0.143 E-score.

For the sequence AAGCCTCG, the binding signal is -0.0203 E-score.

For the sequence GGTCCTAA, the binding signal was -0.143 E-score.

Consider AAAGGCGA, for which the binding signal was -0.132 E-score.

Regarding CCTGCCCG, the binding signal amounted to 0.13 E-score.

As for AAGGGAAC, the binding signal was -0.00861 E-score.

On to CTACGTAC, for which the binding signal is -0.00773 E-score.

With GGTTTTAC, the binding signal is 0.0525 E-score.

For the sequence AACGAATC, the binding signal was -0.0118 E-score.

Take AGCCCCAC: the binding signal was found to be 0.149 E-score.

For AAACGTGC, the binding signal was -0.23 E-score.

On to GACTGGTA, for which the binding signal is -0.115 E-score.

As to AGTTCCGC, the binding signal was -0.212 E-score.

As to GAGTCCGC, the binding signal is -0.0132 E-score.

For ACCCAATA, the binding signal came out at 0.077 E-score.

For the sequence ATGACAAG, the binding signal worked out at 0.0161 E-score.

Take CCGAAGCG: the binding signal was -0.0138 E-score.

ATTCAGTC: the binding signal was -0.24 E-score.

As for ATCGAAAG, the binding signal was -0.122 E-score.

With AGTTGCTC, the binding signal was -0.0914 E-score.

In the case of GTGGGACA, the binding signal is 0.171 E-score.

As to GACAAGCC, the binding signal amounted to 0.00254 E-score.

For the sequence AAGTTCTC, the binding signal was -0.229 E-score.

Consider AGCGAGTG, for which the binding signal was determined as 0.268 E-score.

Regarding TAATTCGA, the binding signal is -0.221 E-score.

As for GAGTAAAA, the binding signal worked out at 0.0792 E-score.

Regarding CAGTGATA, the binding signal was -0.0632 E-score.

Consider CCAAGTGA, for which the binding signal was -0.132 E-score.

On to ATCCACGA, for which the binding signal is -0.00615 E-score.

Take GTTAGTAA: the binding signal is -0.0528 E-score.

For the sequence GCCAGTAA, the binding signal is -0.216 E-score.

As for GACTCTGC, the binding signal is -0.0533 E-score.

With CGCTAGGC, the binding signal was -0.0922 E-score.

With CCACGACA, the binding signal was found to be 0.27 E-score.

Consider ATGCAGAA, for which the binding signal is -0.255 E-score.

Regarding GCACTAGA, the binding signal was -0.197 E-score.

For GTTCTAAA, the binding signal was -0.0375 E-score.

Take CTGTATTC: the binding signal is -0.173 E-score.

With ACCCTGAT, the binding signal came out at 0.12 E-score.

Turning to CCGAACTA, the binding signal was -0.0348 E-score.

Regarding AGGGATAT, the binding signal was -0.0023 E-score.

As to ACAGAAGT, the binding signal was -0.251 E-score.

Take AGAATCGG: the binding signal was 0.0575 E-score.

Take CTAGGACA: the binding signal stood at 0.162 E-score.

Consider ACCAAATG, for which the binding signal was determined as 0.13 E-score.

For TCACCGGA, the binding signal was 0.076 E-score.

In the case of GACCAGTA, the binding signal was determined as 0.071 E-score.

Turning to GAAGTAAC, the binding signal is -0.0331 E-score.

With ATACAGCC, the binding signal is -0.146 E-score.

For GGCGTAAA, the binding signal came to 0.0835 E-score.

In the case of GCATGCAA, the binding signal is -0.0161 E-score.

Turning to ACGGATAC, the binding signal was determined as 0.28 E-score.

AGGCCGGA: the binding signal is -0.021 E-score.

Regarding TAAATGGA, the binding signal was -0.0423 E-score.

In the case of CGTCTCGA, the binding signal was 0.0661 E-score.

As to AAAACGAT, the binding signal was -0.0921 E-score.

Take ATTAGCTG: the binding signal is -0.192 E-score.

For ACCTACCG, the binding signal was -0.0295 E-score.

Regarding CTGGCCAA, the binding signal was -0.0449 E-score.

On to CATTAAAC, for which the binding signal amounted to 0.0376 E-score.

As to CTACGACA, the binding signal was 0.172 E-score.

As to CAGTAGCC, the binding signal was 0.00409 E-score.

On to GTATGCGA, for which the binding signal worked out at 0.0192 E-score.

Consider AAACGGTT, for which the binding signal was -0.221 E-score.

With GAAGCCAC, the binding signal was -0.279 E-score.

AGGGTCAG: the binding signal was 0.0629 E-score.

In the case of CCGACAAA, the binding signal is -0.13 E-score.

As to CAACGCTC, the binding signal is -0.123 E-score.

ACTTCTGG: the binding signal amounted to 0.0316 E-score.

Regarding CGTCAGGC, the binding signal was -0.0745 E-score.

As for ACCACGTC, the binding signal came out at 0.182 E-score.

Take CCTGGTTC: the binding signal amounted to 0.0333 E-score.

In the case of GCGCCCAA, the binding signal is -0.0806 E-score.

For GGGGAAAC, the binding signal was found to be 0.0588 E-score.

As to ACAATAGG, the binding signal is -0.0569 E-score.

CTCGAAAA: the binding signal was -0.281 E-score.

With TCACCCGA, the binding signal is -0.0103 E-score.

As to CAAAGTGG, the binding signal was -0.0842 E-score.

Take CAGAATAC: the binding signal is -0.0488 E-score.

Take CTTTTGTA: the binding signal was -0.146 E-score.

As to ACCTAACC, the binding signal was 0.11 E-score.

For GAAAACCC, the binding signal is -0.00386 E-score.

Consider ATTTTGAG, for which the binding signal came out at 0.0217 E-score.

For the sequence CTAAATCA, the binding signal is -0.131 E-score.

Consider GTTATAGA, for which the binding signal is 0.005 E-score.

On to GAGCGCAA, for which the binding signal is -0.202 E-score.

As for CTGCTGGC, the binding signal was -0.104 E-score.

Regarding CCCGACCC, the binding signal is 0.187 E-score.

As to CTGGGTTC, the binding signal is 0.11 E-score.

As to GACAGCAC, the binding signal is 0.0155 E-score.

Take CAGGTCGA: the binding signal was -0.0691 E-score.

In the case of CTGACAAC, the binding signal is -0.00377 E-score.

For GTTCTAGA, the binding signal is -0.018 E-score.

Consider GATTACCA, for which the binding signal was -0.124 E-score.

For the sequence CGCCACCA, the binding signal is -0.0251 E-score.

Turning to CCAATTGG, the binding signal came to 0.121 E-score.

In the case of GGTCAACA, the binding signal is 0.075 E-score.

Regarding CTTACCTA, the binding signal was -0.106 E-score.

As to CTGCCGAA, the binding signal is -0.037 E-score.

As to GCGTAATA, the binding signal was -0.0788 E-score.

Consider ACATTAGT, for which the binding signal turned out to be 0.039 E-score.

For GATCCAGA, the binding signal is 0.0537 E-score.

Consider CTCTACCA, for which the binding signal stood at 0.0673 E-score.

Regarding CTCCAAAC, the binding signal amounted to 0.119 E-score.

Consider CTTGTCTA, for which the binding signal was -0.149 E-score.

Take CCTCTAGC: the binding signal is -0.102 E-score.

AGACCTAC: the binding signal was -0.131 E-score.

For the sequence CATCAGCC, the binding signal was -0.241 E-score.
